“And” between values parts separate entries of the source, which are not always exact repeats. Equal entries are not always repeated. Hit rate of the full screen: of about 220,000 compounds, about 5,700 (2.6%) were called active. This list was built around the results that the source calls inconclusive (neither active nor inactive); the mix of calls is not that of the screen. The call rests on the fitted dose curve; in most records, active means well fitted inhibition curve with a large enough effect; inconclusive means small, poorly fitted or top-dose-only effect; inactive means no such curve, though single readings can be large or run the other way. Potencies beside an inconclusive call are fits to weak or partial responses and may not hold up.
The molecules below were run against Lysine-specific demethylase 5B (Homo sapiens) (UniProt Q9UGL1) (assay: Primary screen for KDM5B Histone Demethylases FDH-coupled qHTS). Conditions: FDH-coupled NADH fluorescence (FDH is formaldehyde dehydrogenase); activity change, negative = inhibition: at 57.7 µM (top of the series) unless noted.
Chain of UniProt Q9UGL1 (Q9UGL1 whole entry, looked up): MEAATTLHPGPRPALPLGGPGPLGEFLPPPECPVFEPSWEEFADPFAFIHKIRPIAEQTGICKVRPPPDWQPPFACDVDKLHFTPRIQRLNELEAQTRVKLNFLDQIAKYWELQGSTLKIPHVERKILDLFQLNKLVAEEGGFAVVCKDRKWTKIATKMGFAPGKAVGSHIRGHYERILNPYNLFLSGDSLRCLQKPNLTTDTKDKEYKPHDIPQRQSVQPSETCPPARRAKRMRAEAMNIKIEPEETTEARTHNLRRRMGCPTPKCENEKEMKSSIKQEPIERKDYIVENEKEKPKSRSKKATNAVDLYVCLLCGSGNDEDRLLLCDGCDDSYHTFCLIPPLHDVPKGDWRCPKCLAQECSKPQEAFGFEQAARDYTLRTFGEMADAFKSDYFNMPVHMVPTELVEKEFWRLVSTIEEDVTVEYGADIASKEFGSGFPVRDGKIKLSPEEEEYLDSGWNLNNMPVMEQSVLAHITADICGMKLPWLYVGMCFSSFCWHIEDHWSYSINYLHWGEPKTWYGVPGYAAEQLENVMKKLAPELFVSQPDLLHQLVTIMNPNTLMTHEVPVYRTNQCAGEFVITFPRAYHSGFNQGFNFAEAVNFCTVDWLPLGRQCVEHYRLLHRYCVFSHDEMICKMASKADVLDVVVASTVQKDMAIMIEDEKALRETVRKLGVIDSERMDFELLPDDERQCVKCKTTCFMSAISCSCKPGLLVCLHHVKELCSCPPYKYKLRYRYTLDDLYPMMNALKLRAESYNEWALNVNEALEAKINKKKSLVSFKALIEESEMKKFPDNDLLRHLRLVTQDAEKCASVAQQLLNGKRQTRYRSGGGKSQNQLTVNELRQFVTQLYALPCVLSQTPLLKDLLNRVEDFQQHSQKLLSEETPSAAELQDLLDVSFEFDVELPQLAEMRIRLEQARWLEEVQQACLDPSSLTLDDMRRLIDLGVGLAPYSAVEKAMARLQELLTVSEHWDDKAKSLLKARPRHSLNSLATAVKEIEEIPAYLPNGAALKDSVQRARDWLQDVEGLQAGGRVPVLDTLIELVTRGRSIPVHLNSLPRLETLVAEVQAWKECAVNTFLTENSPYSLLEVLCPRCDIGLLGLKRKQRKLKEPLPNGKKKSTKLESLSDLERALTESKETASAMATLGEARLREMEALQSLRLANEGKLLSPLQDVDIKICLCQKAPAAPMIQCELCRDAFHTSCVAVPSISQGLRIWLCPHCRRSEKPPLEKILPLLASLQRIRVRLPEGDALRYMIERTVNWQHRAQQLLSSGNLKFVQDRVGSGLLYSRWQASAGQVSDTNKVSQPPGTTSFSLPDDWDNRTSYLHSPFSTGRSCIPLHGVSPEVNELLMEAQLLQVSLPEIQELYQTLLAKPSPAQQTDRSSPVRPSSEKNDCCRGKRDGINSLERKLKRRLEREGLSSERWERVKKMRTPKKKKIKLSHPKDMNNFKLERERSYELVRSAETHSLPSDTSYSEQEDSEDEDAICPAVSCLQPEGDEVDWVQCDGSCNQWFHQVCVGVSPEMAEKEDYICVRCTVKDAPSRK
Method in brief: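 KDM5BΔAP (200 nM final) in 50 mM HEPES pH 7.5, 0.01% Tween-20 was preincubated 10 min at RT with compound over a concentration range. Substrate mix (H3K4me3 12.5 µM, α-KG 25 µM, Fe²⁺, ascorbate, NAD⁺, FDH) was added, and NADH fluorescence change over 30 min gave dose-response curves.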
Further: nearly all actives have a fitted effect of over 70% in size.
Potency means the concentration at half of the fitted maximal effect; tags describe the fitted curve by direction and shape.
Wherever activity change, negative = inhibition is given: 0% is about no effect.

Row | SMILES | Potency | activity change, negative = inhibition
1 | Cc1ccccc1C(=O)Oc1cc(-c2ccc3c(c2)OCO3)cc(=O)c2c(C)oc(C)c12 | inconclusive: 22.4 µM [inhibitor, partial curve, poor fit] | 
2 | Cc1cc(=O)oc2cc(OCC(=O)NC(C)(C#N)C3CC3)ccc12 (stereo unspecified) | inconclusive: 28.2 µM [inhibitor, partial curve, poor fit] | 
3 | O=C(CN1C(=O)NC(c2ccccc2Cl)C2=C1COC2=O)Nc1ccc(F)cc1F (stereo unspecified) | inactive | 
4 | Cc1nn2c(c1-c1ccccc1N1CCCC1)N(C(=O)C(C)C)CCC2 | inconclusive: 31.6 µM [inhibitor, single point] | 
5 | Cc1ccc(C)c(NC(=O)CC(C)(C)CC(=O)O)c1 | inactive | 
6 | COc1ccc(-n2nc3ccc(NC(=O)CSc4ccccc4)cc3n2)cc1Cl | inconclusive: 11.2 µM [inhibitor, partial curve, poor fit] | 
7 | CCn1c(=O)n(-c2ccc(F)c(Cl)c2)c(=O)c2sc3ccccc3c21 | inconclusive: 1 µM [inhibitor, partial curve, poor fit] | 
8 | CC(CNC(=O)c1nccnc1N)c1ccccc1 (stereo unspecified) | inconclusive: 28.2 µM [inhibitor, partial curve, poor fit] | 
9 | COC(=O)c1ccccc1NC(=O)COCc1cc(-c2cccs2)on1 | inconclusive: 39.8 µM [inhibitor, single point] | 
10 | Cc1cccc(-c2noc(-c3cn(CC(=O)NCc4cccs4)c4nc(C)ccc4c3=O)n2)c1 | inconclusive: 39.8 µM [inhibitor, partial curve, poor fit] | 
11 | Cc1ccc(NC(=O)COC(=O)c2ccc(C3Nc4ccccc4S(=O)(=O)N3)cc2)cc1 (stereo unspecified) | inconclusive: 28.2 µM [inhibitor, single point] | 
12 | CCC(CC)c1nnc(NC(=O)CCS(=O)(=O)Cc2ccccc2)s1 | inconclusive: 20 µM [inhibitor, partial curve, poor fit] | 
13 | Cn1cc(C2c3ccccc3C(=O)N2CC(N)=O)c2ccccc21 (stereo unspecified) | inactive | 
14 | Cc1cccc(N2CCN(C(=O)COCc3cc(-c4ccc5c(c4)OCO5)on3)CC2)c1C | inconclusive: 22.4 µM [inhibitor, single point] and inconclusive: 25.1 µM [inhibitor, single point] | 
15 | COc1ccc2c(c1)OCC(CNC(=O)c1csc(C(C)=O)c1)C2 (stereo unspecified) | inactive | 
16 | N#CCC(=O)c1ccc2c(c1)OCO2 | inactive | 
17 | COc1cccc(CNC(=O)c2cc3cc(OC)ccc3[nH]2)c1 | inconclusive: 22.4 µM [inhibitor, partial curve, poor fit] | 
18 | CC(=O)Nc1ccc(Cl)c(C(=O)N2CCC3(CCCN(C)C3=O)C2)c1 (stereo unspecified) | inactive | 
19 | S=C(NCCc1ccc(Cl)cc1)Nc1ccc(Nc2ccccc2)cc1 | inactive | 
20 | CN(C(=O)C(c1ccccc1)c1ccccc1)c1nc2ccccc2o1 | inactive | 
21 | COc1ccc(Cl)cc1-c1ccc2c(c1)C(=O)N1C[C@@H](NS(=O)(=O)c3ccc(F)cc3)C[C@H]1C(=O)N2 | active: 31.6 µM | 
22 | Cc1nn(-c2ccc(C(F)(F)F)cc2)c(C)c1[C@@H]1C=C[C@@H](NS(=O)(=O)c2ccccc2)C1 | inconclusive: 35.5 µM [inhibitor, partial curve, poor fit] | 

Row | SMILES | Potency | activity change, negative = inhibition
23 | COCCN1CCC(CN(Cc2ccncc2)C(=O)c2ccc(F)c(C)c2)CC1 | inactive | 
24 | CCC(=O)Nc1ccc2oc(-c3cc(F)c(F)cc3Cl)nc2c1 | inconclusive: 2 µM [inhibitor, full curve, poor fit] | 
25 | CNC(=O)[C@@H](c1ccc(Cl)cc1)N1CCC[C@H]1C(=O)N(C)CCN(C)C | inconclusive: 5.62 µM [inhibitor, partial curve, poor fit] | 
26 | CCCCOc1ccc2c(C)c(CC(C)C)c(=O)oc2c1 | inconclusive: 28.2 µM [inhibitor, partial curve, poor fit] | 
27 | CC(C)C(NC(=O)c1ccccc1Cl)c1nnc(SCC(=O)c2ccccc2)n1C (stereo unspecified) | inconclusive: 39.8 µM [inhibitor, single point] | 
28 | O=C(NCc1ccc(F)cc1Cl)c1cc2n(n1)CC(c1ccc3c(c1)OCO3)OC2 (stereo unspecified) | inconclusive: 28.2 µM [inhibitor, partial curve, poor fit] | 
29 | CCCNC(=O)Cc1csc2nc(C)c(-c3cc(C)n(-c4cc(Cl)ccc4C)n3)c(=O)n12 | active: 28.2 µM | 
30 | CCCc1noc(-c2ccn3c(CNC(=O)Cc4ccccc4OC)nnc3c2)n1 | active: 17.8 µM | 
31 | O=C(Nc1ccc2c(N3CCCC3)ncnc2c1)c1cccc(Br)c1 | inconclusive: 28.2 µM [inhibitor, partial curve] | 
32 | Cc1[nH]c2ccccc2c1C(C(=O)O)N1CCN(c2nsc3ccccc23)CC1 (stereo unspecified) | inconclusive: 22.4 µM [inhibitor, single point] | 
33 | CC(C)c1noc(CC2CCN(C(=O)c3ccccc3Cl)CC2)n1 | inactive | 
34 | O=C(Nc1ccc(F)c(F)c1)c1cc(S(=O)(=O)N2CCc3ccccc32)ccc1F | inactive | 
35 | Cc1ccc(Cl)cc1-n1nc(-c2c(C)nc3scc(CC(=O)NCCC(C)C)n3c2=O)cc1C | active: 22.4 µM | 
36 | Cc1oc(-c2cccs2)nc1CC(=O)Nc1ccccc1OCC(F)(F)F | inactive | 
37 | COc1cc(C2Nc3ccccc3-n3cc4c(=O)n(C)c(=O)n(C)c4c32)ccc1O (stereo unspecified) | inconclusive: 28.2 µM [inhibitor, partial curve, poor fit] | 
38 | Cc1cccn2c(CNC(=O)CCc3cc4n(n3)CCCNC4)cnc12 | active: 25.1 µM | 
39 | O=C(O)c1cccc(CN2C(=O)S/C(=C/c3cccc([N+](=O)[O-])c3)C2=O)c1 | inconclusive: 39.8 µM [inhibitor, single point] | 
40 | CCCS(=O)(=O)N1CCC2(CC1)CN(C(C)=O)CC2COC (stereo unspecified) | inconclusive: 35.5 µM [inhibitor, partial curve, poor fit] | 
41 | CC1=C(c2ccc(C)cc2)S(=O)(=O)N(Cc2ccc(C(=O)NCc3ccccc3)cc2)C1=O | inconclusive: 35.5 µM [inhibitor, partial curve, poor fit] | 
42 | CNS(=O)(=O)Cc1ccccc1CNC(=O)c1cc(F)cc(F)c1 | inactive | 
43 | Fc1c(F)c(F)c(/C=N/Nc2c(F)c(F)c(F)c(F)c2F)c(F)c1F | inactive | 
44 | CC(C)(C)C(=O)/C(C#N)=C\c1cccc(F)c1 | inactive | 

Row | SMILES | Potency | activity change, negative = inhibition
45 | COc1cccc(N=Nc2ccc3cccnc3c2O)c1 | inconclusive: 31.6 µM [inhibitor, single point] | 
46 | CCc1nn2c(=O)cc(COC(=O)c3cccc(NC(=O)c4ccccc4C)c3)nc2s1 | inconclusive: 4.47 µM [inhibitor, full curve, poor fit] | 
47 | CC(C)(C)C1CCc2nc(NC(=O)COc3ccccc3[N+](=O)[O-])sc2C1 (stereo unspecified) | inconclusive: 35.5 µM [inhibitor, single point] | 
48 | O=C(NCc1nnc2cc(-c3nc(C4CC4)no3)ccn12)c1ccccc1F | active: 8.91 µM | 
49 | COc1ccc(-c2ccnc3c2c(=O)[nH]c(=O)n3Cc2ccco2)cc1OC | inconclusive: 1.78 µM [inhibitor, full curve, poor fit] | 
50 | Cc1ccc(C(=O)Nc2nnc(S(=O)(=O)N(C)Cc3ccco3)s2)cc1 | inconclusive: 35.5 µM [inhibitor, single point] | 
51 | CC(C(=O)Nc1ccccc1Br)N1c2cccc3cccc(c23)S1(=O)=O (stereo unspecified) | inconclusive: 28.2 µM [inhibitor, partial curve, poor fit] | 
52 | CCCC(CCC)C(=O)NCc1nnnn1-c1ccc(OCC)cc1 | inactive | 
53 | CC(=O)Nc1cccc(NC(=O)c2cc(C(C)C)nc3ccccc23)c1 | inactive | 
54 | CN(CCNC(=O)c1cc2cn(C3CC3)cc2s1)C1CCCCC1 | inconclusive: 11.2 µM [inhibitor, partial curve] | 
55 | COc1ccc(S(=O)(=O)Nc2cc(OC(F)F)c(OC)cc2C(=O)O)cc1Br | inconclusive: 31.6 µM [inhibitor, partial curve, poor fit] | 
56 | CC(C(=O)N1CCc2onc(-c3ccc(C(F)(F)F)cc3)c2C1)N1CCCC1=O (stereo unspecified) | inactive | 
57 | O=C(CN1CCN(C(=O)CCc2ncc(-c3ccccc3F)o2)CC1)Nc1ccccc1Cl | inactive | 
58 | COc1ccc(CN2CC3(CCN(C(=O)Nc4ccc5c(c4)OCCO5)CC3)C2=O)cc1 | inactive | 
59 | O=C(c1ccc2ncccc2c1)N1CCC(N2CC3CC(C2)[C@H]2CCCC(=O)N2C3)CC1 (stereo partly specified) | inconclusive: 22.4 µM [inhibitor, single point] | 
60 | COc1ccc(-c2c(C#N)c(SCC(=O)Nc3ccc(C)c(C)c3)nc(C)c2C(=O)Nc2ccccc2)cc1OC | inconclusive: 14.1 µM [inhibitor, partial curve, poor fit] | 
61 | Cc1ccc(N(C)S(=O)(=O)c2nnc(NC(=O)c3ccco3)s2)cc1 |  | inconclusive: -38.7% [inhibitor]
62 | O=C(O)CN(CCN(CC(=O)O)CC(=O)O)CCN(CC(=O)O)CC(=O)O | inconclusive: 39.8 µM [inhibitor, partial curve, poor fit] | 
63 | Fc1ccc(-c2noc(-c3nnn4c3COC(c3ccc(Cl)cc3)C4)n2)cc1F (stereo unspecified) | inactive | 
64 | CCCCNC(=O)CN1CCN(c2ccc(NC(=O)c3ccc(OC)cc3)cc2C(=O)O)CC1 | inconclusive: 39.8 µM [inhibitor, single point] | 
65 | O=S(=O)(c1ccccc1)N1CCN(c2ccc(N3CCCCCC3)nn2)CC1 | inconclusive: 31.6 µM [inhibitor, partial curve, poor fit] | 
66 | O=C(Cc1c[nH]c2ncc(-c3cccc(CO)c3)cc12)N1CCOCC1 | active: 28.2 µM | 
